The values below come from paper PMC4336329 (PLoS ONE, 2015).

The whole screen tested about 310,000 compounds, of which about 2,200 (0.71%) showed an effect of 50% or more. The effect is printed as a negative number. Some of the results follow.

The target in this assay is human ether-à-go-go-related gene (hERG) potassium channel (human, UniProt Q12809). Kind of assay: primary screen, population patch clamp on CHO cells stably expressing hERG.
human ether-à-go-go-related gene (hERG) potassium channel, sequence (Q12809 whole entry, looked up): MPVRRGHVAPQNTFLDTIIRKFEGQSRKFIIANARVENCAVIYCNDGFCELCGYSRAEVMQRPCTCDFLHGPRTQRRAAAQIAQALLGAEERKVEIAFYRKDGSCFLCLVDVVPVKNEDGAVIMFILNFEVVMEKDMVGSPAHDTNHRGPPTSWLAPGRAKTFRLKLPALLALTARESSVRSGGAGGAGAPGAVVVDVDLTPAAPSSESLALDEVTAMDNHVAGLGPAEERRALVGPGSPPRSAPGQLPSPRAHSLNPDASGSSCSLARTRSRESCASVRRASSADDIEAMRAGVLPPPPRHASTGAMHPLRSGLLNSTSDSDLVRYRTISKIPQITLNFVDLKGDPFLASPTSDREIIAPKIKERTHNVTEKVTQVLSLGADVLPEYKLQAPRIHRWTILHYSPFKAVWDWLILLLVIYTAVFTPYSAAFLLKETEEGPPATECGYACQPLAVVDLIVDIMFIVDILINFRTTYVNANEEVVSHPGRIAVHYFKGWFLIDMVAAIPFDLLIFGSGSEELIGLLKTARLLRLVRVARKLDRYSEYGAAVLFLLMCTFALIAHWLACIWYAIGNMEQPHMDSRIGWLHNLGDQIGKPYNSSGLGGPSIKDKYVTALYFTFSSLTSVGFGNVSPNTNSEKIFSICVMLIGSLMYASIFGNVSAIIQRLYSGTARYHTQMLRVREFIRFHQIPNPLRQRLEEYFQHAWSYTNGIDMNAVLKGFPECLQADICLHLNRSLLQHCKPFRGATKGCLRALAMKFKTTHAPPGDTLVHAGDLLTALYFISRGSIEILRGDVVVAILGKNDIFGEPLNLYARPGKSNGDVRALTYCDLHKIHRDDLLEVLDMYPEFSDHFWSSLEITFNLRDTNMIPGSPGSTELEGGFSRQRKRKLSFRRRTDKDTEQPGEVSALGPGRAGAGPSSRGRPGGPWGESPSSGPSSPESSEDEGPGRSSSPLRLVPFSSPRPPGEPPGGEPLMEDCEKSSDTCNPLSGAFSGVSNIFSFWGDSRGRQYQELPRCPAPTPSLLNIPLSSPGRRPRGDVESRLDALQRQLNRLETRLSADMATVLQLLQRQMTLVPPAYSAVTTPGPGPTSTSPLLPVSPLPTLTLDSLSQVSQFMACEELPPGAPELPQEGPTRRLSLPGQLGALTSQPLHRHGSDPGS
Consider `COC(=O)C1=C(C)N(c2ccc(Cl)cc2)/C(=C/c2ccc(O)cc2)C1=O`, for which the “hERG current change (%, negative = inhibition) at 1uM” value was determined as 16.2%.

For the compound `CC(C)c1ccc(/C=N/NC(=O)c2c(Cl)cnn2C)cc1`, the “hERG current change (%, negative = inhibition) at 1uM” value came out at 6.86%.

Turning to `CCCCC(CC)CNC(=O)CC1Nc2c3ccccc3nc(=S)n2C1=O` (stereo not drawn), the “hERG current change (%, negative = inhibition) at 1uM” value came to 12.2%.

As for `Cc1ccc(C(=O)Nc2oc(-c3ccccc3)cc2C#N)cc1`, the “hERG current change (%, negative = inhibition) at 1uM” value amounted to 14.5%.

For `Cn1nc(CC(=O)Nc2cccnc2N2CCOCC2)c2ccccc2c1=O`, the “hERG current change (%, negative = inhibition) at 1uM” value is on record as -0.663%.

As for `CCC1CCCCN1C(=O)N[C@@H](Cc1ccccc1)C(=O)O` (stereo partly drawn), the “hERG current change (%, negative = inhibition) at 1uM” value is recorded as 15.1%.

Consider `O=C(CN(Cc1ccccc1)S(=O)(=O)c1ccccc1)NC1CC1`, for which the “hERG current change (%, negative = inhibition) at 1uM” value is given as 5.25%.

Turning to `COc1cccc2c(N/N=C/c3ccccc3)cc(C)nc12`, the “hERG current change (%, negative = inhibition) at 1uM” value came to 5.33%.

`NC(=O)c1ccc(NC(=O)Nc2ccc3c(c2)OCO3)cc1`: the “hERG current change (%, negative = inhibition) at 1uM” value came to 16.4%.

On to `CCOc1ccc(C(=O)CSc2nnc(N)s2)cc1`, for which the “hERG current change (%, negative = inhibition) at 1uM” value is 6.56%.

For `Cc1cc(Br)ccc1NC(=O)CN(C)C(=O)Cn1c(=O)cnc2ccccc21`, the “hERG current change (%, negative = inhibition) at 1uM” value amounted to 6.85%.

Turning to `Nn1c(SCC(=O)Nc2ccc3c(c2)OCO3)nnc1C1CCCCC1`, the “hERG current change (%, negative = inhibition) at 1uM” value was 5.34%.

Regarding `CC(Oc1ccccc1)C(=O)Nc1nnc(S(=O)(=O)N2CCCCCC2)s1` (stereo not drawn), the “hERG current change (%, negative = inhibition) at 1uM” value amounted to 11.4%.

For the compound `COc1ccc(CCNC(=O)C(=O)NCCOc2ccccc2Cl)cc1OC`, the “hERG current change (%, negative = inhibition) at 1uM” value is 31.8%.

Turning to `N#CC1=C(N)N(c2ccc(Br)cc2)C2=C(C(=O)CCC2)C1c1cccnc1` (stereo not drawn), the “hERG current change (%, negative = inhibition) at 1uM” value is listed as -6.1%.

Consider `COC(=O)C1=C(C)NC(C)=C(C(=O)OC)C1c1ccccn1`, for which the “hERG current change (%, negative = inhibition) at 1uM” value is given as 9.97%.

For the compound `COc1cc(C(=O)NCCN2CCCC2)cc(OC)c1OC.Cl`, the “hERG current change (%, negative = inhibition) at 1uM” value stood at 11.7%.

Consider `CCOc1ccccc1C(=O)NC(C)c1ccc2c(c1)OCO2` (stereo not drawn), for which the “hERG current change (%, negative = inhibition) at 1uM” value is listed as -4.7%.

For `CCOC(=O)C(C)NC(=O)c1cn(-c2ccc(OC)cc2)c(=O)c2ccccc12` (stereo not drawn), the “hERG current change (%, negative = inhibition) at 1uM” value was determined as 15.9%.

For the compound `CCC(=O)Nc1ccc(-c2ccc(NC(=O)CC)c(OC)c2)cc1OC`, the “hERG current change (%, negative = inhibition) at 1uM” value is given as 10.9%.

In the case of `CCCS(=O)(=O)N1CCCC(C(=O)NCC(OC)OC)C1` (stereo not drawn), the “hERG current change (%, negative = inhibition) at 1uM” value is recorded as 17.1%.

Regarding `O=C(NC(=S)N1CCCC1)c1ccccc1Cl`, the “hERG current change (%, negative = inhibition) at 1uM” value was found to be 14.9%.

Take `O=C(CCC1CCCC1)Nc1ccc(C(=O)NCc2cccnc2)cc1`: the “hERG current change (%, negative = inhibition) at 1uM” value was -1.9%.

In the case of `Cn1cnc(S(=O)(=O)NCc2ccccc2)c1`, the “hERG current change (%, negative = inhibition) at 1uM” value came out at 8.31%.

On to `O.Oc1cc(O)c2c(c1)O[C@H](c1ccc(O)c(O)c1)[C@@H](O)C2`, for which the “hERG current change (%, negative = inhibition) at 1uM” value was 13.5%.

Regarding `COC(=O)Cn1c(=NC(=O)C2CC2)sc2c(C)cc(C)cc21`, the “hERG current change (%, negative = inhibition) at 1uM” value was 12.1%.

Turning to `Cc1ccc(C(=O)NCC(=O)NCCSc2ccc(Br)cc2)cc1`, the “hERG current change (%, negative = inhibition) at 1uM” value is recorded as 0.26%.

`O=C(NCc1ccc2c(c1)OCO2)c1cc([N+](=O)[O-])ccc1N1CCCCC1`: the “hERG current change (%, negative = inhibition) at 1uM” value is given as 7.22%.

As to `O=C(Nc1ccccc1)c1ccc(CSc2ncccn2)cc1`, the “hERG current change (%, negative = inhibition) at 1uM” value came out at 17.7%.

For the compound `Cc1ccc(-n2ncc3c(=O)n(CC(N)=O)cnc32)cc1`, the “hERG current change (%, negative = inhibition) at 1uM” value was 15%.

On to `Cc1cc(C)nc(-n2nc(C)cc2NC(=O)CNC(C)c2ccccc2)n1` (stereo not drawn), for which the “hERG current change (%, negative = inhibition) at 1uM” value is on record as -13.3%.

On to `Cc1cc(NCCCN(C)C)n2c(nc3ccccc32)c1C#N`, for which the “hERG current change (%, negative = inhibition) at 1uM” value stood at 3.12%.

As to `CCN1CCN(C(=O)c2ccc(CN(c3ccc(C)c(C)c3)S(C)(=O)=O)cc2)CC1`, the “hERG current change (%, negative = inhibition) at 1uM” value is -2.14%.

As for `CCOC(=O)C(C(C)=O)=C1SC2CS(=O)(=O)CC2S1` (stereo not drawn), the “hERG current change (%, negative = inhibition) at 1uM” value was -4.74%.

With `c1ccc(C(CN2CCOCC2)c2ccccc2)cc1`, the “hERG current change (%, negative = inhibition) at 1uM” value was 5.96%.

With `COc1ccccc1NC(=S)NCc1ccc(F)cc1`, the “hERG current change (%, negative = inhibition) at 1uM” value is listed as 11.6%.

For `CSc1ncc(C(=O)O)n1-c1ccc(F)cc1`, the “hERG current change (%, negative = inhibition) at 1uM” value worked out at 12%.

In the case of `CCc1nc(SCc2ccccn2)c2c(=O)n(C)c(=O)n(C)c2n1`, the “hERG current change (%, negative = inhibition) at 1uM” value is 7.61%.

As for `CCC(=O)Nc1ccc(NC(=O)c2cc3ccccc3o2)cc1`, the “hERG current change (%, negative = inhibition) at 1uM” value is -5.21%.

Take `CCCN1CC23C=CC(O2)C(C(=O)O)C3C1=O` (stereo not drawn): the “hERG current change (%, negative = inhibition) at 1uM” value is listed as 12.4%.

As to `CC(Oc1ccccc1)C(=O)N1CCC2(CC1)CC(=O)c1ccccc1O2` (stereo not drawn), the “hERG current change (%, negative = inhibition) at 1uM” value is given as -30.4%.

Regarding `COC(=O)c1ccc(-n2c(C)cc(/C=N/n3cnnc3)c2C)cc1`, the “hERG current change (%, negative = inhibition) at 1uM” value was found to be 5.88%.

In the case of `Cc1ccc(SC(C)c2nc(-c3cccnc3)no2)cc1` (stereo not drawn), the “hERG current change (%, negative = inhibition) at 1uM” value is on record as -3.31%.

For `CC(C)(C)NC(=O)/C(=C\c1ccccc1F)NC(=O)c1ccc([N+](=O)[O-])cc1`, the “hERG current change (%, negative = inhibition) at 1uM” value came to 1.34%.

Consider `O=C(NCCN1CCOCC1)C1CCCN(S(=O)(=O)c2ccc(F)cc2)C1` (stereo not drawn), for which the “hERG current change (%, negative = inhibition) at 1uM” value is recorded as 2.96%.

Turning to `COc1ccc(OCc2cc(C(=O)N3CCN(C4CCCC4)CC3)no2)c(Cl)c1`, the “hERG current change (%, negative = inhibition) at 1uM” value is 4.81%.

`CS(=O)(=O)c1cnc(-c2ccccc2)nc1Sc1ccc(F)cc1`: the “hERG current change (%, negative = inhibition) at 1uM” value is listed as -0.0273%.

As to `Cc1ccc(N=C2NC(=O)CS2)c(C)c1`, the “hERG current change (%, negative = inhibition) at 1uM” value is 6.77%.

With `CC(C)CNC(=O)COC(=O)c1cncc(Br)c1`, the “hERG current change (%, negative = inhibition) at 1uM” value was 2.79%.

As to `O=C(O)CCCn1cc(NC(=O)c2cccc(F)c2)cn1`, the “hERG current change (%, negative = inhibition) at 1uM” value was 7.53%.

As for `O=C(CCN1N=C(c2ccccc2)CCC1=O)NCCCN1CCOCC1`, the “hERG current change (%, negative = inhibition) at 1uM” value amounted to 17.2%.

`Cc1csc(NC(=O)C2CCN(S(=O)(=O)c3ccc4c(c3)oc(=O)n4C)CC2)n1`: the “hERG current change (%, negative = inhibition) at 1uM” value was -27.5%.

As for `COc1ccc(NC(=O)C2CCC(=O)N2S(=O)(=O)c2ccc(C)cc2)cc1Cl` (stereo not drawn), the “hERG current change (%, negative = inhibition) at 1uM” value was found to be 16.4%.

Consider `COc1ccccc1NC(=S)N(Cc1ccc(C)cc1)Cc1ccccn1`, for which the “hERG current change (%, negative = inhibition) at 1uM” value was 2.27%.

On to `O=C(CNc1ccc(F)cc1Cl)Nc1cccc(S(=O)(=O)N2CCCCC2)c1`, for which the “hERG current change (%, negative = inhibition) at 1uM” value was found to be 9.38%.

As to `CCCCCCCN1N=C(C)C(C(=O)c2ccccc2)C1=O` (stereo not drawn), the “hERG current change (%, negative = inhibition) at 1uM” value is 0.523%.

For `O=C(NCCSc1ccc(Br)cc1)c1ccccc1`, the “hERG current change (%, negative = inhibition) at 1uM” value is on record as 8.73%.

Consider `Cc1cc(C)nc(SCCc2ccncc2)n1.Cl`, for which the “hERG current change (%, negative = inhibition) at 1uM” value came out at 13.4%.

On to `CCNC(=S)NNC(=O)c1csc2c1CCC(C)C2` (stereo not drawn), for which the “hERG current change (%, negative = inhibition) at 1uM” value amounted to 5.79%.

For the compound `O=C(NCC1CCCO1)C1CCC(=O)N1Cc1ccc(F)cc1` (stereo not drawn), the “hERG current change (%, negative = inhibition) at 1uM” value stood at 11.3%.
